The whole screen tested about 46,000 compounds, of which about 60 (0.1%) were called active. Another 3% or so got no clear call; they are omitted. Calls follow the shape of the dose curve; as a rule, active = well fitted inhibition curve with a large enough effect; inconclusive = small, poorly fitted or top-dose-only effect; inactive = no such curve, though single readings can be large or run the other way. The list shows a part of the results.
Assay: Primary qHTS assay for Inhibitors of ovarian cancer metastasis using an organotypic tumor microenvironment (TME) model. Also: nearly all actives have a fitted effect of over 65% in size.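 As to activity change, negative = inhibition: plate controls were DMSO wells for no effect and tomatine positive control wells for full effect.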
Settings: SKOV3ip1-GFP adhesion/invasion on 3D omental model, fluorescence; series mostly up to 45.8 µM; activity change, negative = inhibition: at the top concentration
Outline: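 A 3D layer of primary human omental fibroblasts, mesothelial cells, fibronectin and collagen I, grown 48 hr, received SKOV3ip1-GFP cells in serum-free medium plus compounds at 0.36-46 umol/L. After 2 hr RT and 16 hr 37 C, fixed adherent GFP cells were counted; normalized to DMSO and tomatine.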
With `O=C(NCCc1csc(-c2ccc(C(F)(F)F)cc2)n1)C(=O)Nc1cc(F)ccc1F` the “activity change, negative = inhibition” value was inactive: -8.07%.
In the case of `COc1ccc(C(=O)Oc2c(Sc3ccc(Cl)cc3)c(C)nn2C(C)(C)C)cc1OC`, the “activity change, negative = inhibition” value is reported as inactive: -0.42%.
In the case of `COc1ccc(NC(=O)CCCn2c(=O)c3cccn3c3ccccc32)c(OC)c1`, the “outcome” value is reported as “inactive”.
For `CCOc1cccc(CNCCNC(=O)c2nonc2N)c1`, the “activity change, negative = inhibition” value was inactive: -7.71%.
With `O=C1C(c2cccc(Br)c2)N(CCc2ccccc2)C(=O)CN1C1CCCCC1` (configuration not stated) the “outcome” value was “inactive”.
With `Cc1cccc(CNS(=O)(=O)c2csc(C(N)=O)c2)c1` the “outcome” value was “inactive”.
In the case of `O=S(=O)(Nc1cccc(-c2ccc(N3CCCCCC3)nn2)c1)c1ccc(F)cc1`, the “activity change, negative = inhibition” value is reported as inactive: -13.7%.
In the case of `CCOC(=O)c1[nH]c(C)c(CCC(=O)Nc2ccc(C(C)=O)cc2)c1C`, the “activity change, negative = inhibition” value is reported as inactive: 4.71%.
In the case of `Cc1ccccc1NS(=O)(=O)c1nnc(NC(=O)c2ccc(Cl)cc2)s1`, the “outcome” value is reported as “inactive”.
In the case of `CCOc1ccc(C(=O)Nc2cccc(OCc3cc(=O)n4ccccc4n3)c2)cc1`, the “activity change, negative = inhibition” value is reported as inactive: -6.54%.
For `CC(C)(C)NC(=O)C1CCN(c2nc3ccccc3nc2C(F)(F)F)CC1`, the “outcome” value was “inactive”.
With `CCN1CCC(N(Cc2ccc3c(c2)OCO3)C(=O)Nc2cc(F)ccc2F)CC1` the “activity change, negative = inhibition” value was inactive: 1.26%.
For `CCN(CC)C(=O)c1c(NC(=O)c2cccc(C)c2)sc2c1CCC(C)C2` (configuration not stated), the “activity change, negative = inhibition” value was inactive: 1.55%.
For `Cc1ccc(NC(=O)c2sc3nc(-c4cccs4)ccc3c2N)cc1F`, the “activity change, negative = inhibition” value was inactive: -7.24%.
For `COc1ccc(-c2cc(C(F)(F)F)nc(SCCC(=O)Nc3ccc(OC)c(OC)c3)n2)cc1`, the “outcome” value was “inactive”.
With `CCOC(=O)N1CCN([N+]([O-])=NOc2ccc([N+](=O)[O-])cc2[N+](=O)[O-])CC1` the “activity change, negative = inhibition” value was inactive: -4.51%.
In the case of `CCCCc1nnc(SCc2cc(=O)c3cc(F)ccc3[nH]2)n1C`, the “activity change, negative = inhibition” value is reported as inactive: 2.91%.
For `O=C(c1cnc(N2CCOCC2)c2ccccc12)N1CCN(c2ccccc2)CC1`, the “activity change, negative = inhibition” value was inactive: 5.75%.
For `Cc1cc(C)c(-c2n[nH]c3c2C(c2ccccc2F)N(Cc2ccco2)C3=O)c(O)c1` (configuration not stated), the “activity change, negative = inhibition” value was inactive: -22.3%.
For `O=c1[nH]c2cc(Br)ccc2n2cccc12`, the “activity change, negative = inhibition” value was inactive: -27%.
With `Cc1ccc(-n2ncc3c(NC4CCCCCC4)ncnc32)cc1` the “activity change, negative = inhibition” value was inactive: -0.319%.
With `COc1ccc(C(=O)NCCn2cc(SCc3c(F)cccc3Cl)c3ccccc32)cc1` the “activity change, negative = inhibition” value was inactive: -7.81%.
For `COc1ccc(CNC(=O)CN2C(=O)CC(c3ccc(C)c(C)c3)=Nc3ccccc32)cc1`, the “activity change, negative = inhibition” value was inactive: -1.22%.
With `CCN(CC)CCSc1c(C(C)C)cnc2c1c(=O)n(C)c(=O)n2C` the “activity change, negative = inhibition” value was inactive: 6.96%.
With `CCOc1ccc(CNC(=O)CSc2nnc(C)c3c(C)n(-c4ccc(Cl)cc4)nc23)cc1` the “activity change, negative = inhibition” value was inactive: -8.04%.
For `O=C(CN1C(=O)COc2ccc(S(=O)(=O)NC3CCCC3)cc21)NCc1ccc(Cl)cc1`, the “activity change, negative = inhibition” value was inactive: -0.371%.
In the case of `COc1cc(NC(=O)N2CCc3c(sc4c3CCCC4)C2c2ccccc2)cc(OC)c1OC` (configuration not stated), the “activity change, negative = inhibition” value is reported as inactive: 2.69%.
For `COc1ccc(OC)c2sc(N3CCN(C(=O)c4ccco4)CC3)nc12`, the “activity change, negative = inhibition” value was inactive: 3.2%.
With `CN1CCN(C(=O)C(=O)Nc2c3c(nn2-c2ccc(Cl)cc2)CSC3)CC1` the “activity change, negative = inhibition” value was inactive: 1.88%.
For `Cc1c(C(=O)N2CCC(C)CC2)c(S(=O)(=O)N(Cc2ccccc2)C(C)(C)C)c(C)n1C`, the “activity change, negative = inhibition” value was inactive: 5.37%.
For `COc1cccc(CNC(=O)CSC2=Nc3ccccc3N=C(c3ccc(F)cc3)C2)c1`, the “outcome” value was “inactive”.
In the case of `COC(=O)c1ccc(C(=O)OC)c(NC(=O)CN(c2ccccc2)S(=O)(=O)N(C)C)c1`, the “activity change, negative = inhibition” value is reported as inactive: -11.4%.
In the case of `Cc1ccc(NC(=O)Nc2nnc(N3CCCC3)s2)cc1C`, the “activity change, negative = inhibition” value is reported as inactive: 6.52%.
In the case of `CCC(=O)NCCc1nc2cc(NC(=O)c3cccc(Br)c3)ccc2n1C`, the “activity change, negative = inhibition” value is reported as inactive: 1.68%.
In the case of `Cn1c(=O)c(C(=O)O)nn(-c2ccccc2)c1=O`, the “activity change, negative = inhibition” value is reported as inactive: 4.29%.
For `Cc1ccc(N2C(=O)CCSC23C(=O)N(Cc2ccccc2)c2ccccc23)cc1` (configuration not stated), the “activity change, negative = inhibition” value was inactive: 1.64%.
For `CCN(CC)C(=O)c1ccc2c(c1)N(Cc1ccc(C(F)(F)F)cc1)C(=O)c1ccccc1S2`, the “activity change, negative = inhibition” value was inactive: -26.5%.
In the case of `CCOCCCn1c(=N)c(C(=O)NCc2cccnc2)cc2c(=O)n3ccccc3nc21`, the “outcome” value is reported as “inactive”.
In the case of `Clc1ccc(-n2ncc3c(NC4CCCC4)ncnc32)cc1`, the “activity change, negative = inhibition” value is reported as inactive: -3.46%.
With `Cc1cc(C)c(NC(=O)Cn2c(=O)n(CCC(=O)N3CCc4ccccc4C3)c(=O)c3ccccc32)c(C)c1` the “activity change, negative = inhibition” value was inactive: -3.52%.
For `CCN(CC)S(=O)(=O)c1ccc2c(c1)N(CC(=O)N1CCN(c3cccc(C)c3C)CC1)C(=O)CO2`, the “activity change, negative = inhibition” value was inactive: -20%.
In the case of `Cc1ccc(Cn2c3ccccc3c3cnn(CC(=O)Nc4cc(Cl)ccc4C)c(=O)c32)cc1`, the “activity change, negative = inhibition” value is reported as inactive: -5.22%.
In the case of `Cc1c(CNC2CCCCC2)c(C(=O)O)c(C)n1Cc1ccc(Cl)cc1`, the “outcome” value is reported as “inactive”.
For `O=C(NCc1ccccc1Cl)c1ccc(CS(=O)(=O)c2ccc(Br)cc2)o1`, the “activity change, negative = inhibition” value was inactive: 4.08%.
For `CCOC(=O)C1CCN(C(=O)Cn2nc(CC)n3c(cc4sccc43)c2=O)CC1`, the “outcome” value was “inactive”.
In the case of `Cn1nnnc1SCCCNCc1ccccc1OCc1ccc(Cl)cc1`, the “outcome” value is reported as “inactive”.
For `COc1ccc(Nc2ncnc3sc4c(c23)CCCC4)cc1`, the “activity change, negative = inhibition” value was inactive: 2.03%.
In the case of `CCOC(=O)C1CCCN(c2nc3c(S(=O)(=O)c4ccc(CC)cc4)nnn3c3ccc(Cl)cc23)C1` (configuration not stated), the “activity change, negative = inhibition” value is reported as inactive: -1.27%.
For `COc1ccc(C)cc1NC(=O)Nc1nnc(N2CCCCC2)s1`, the “activity change, negative = inhibition” value was inactive: 1.02%.
In the case of `CC(NC(=O)Cn1ccc2cc(S(=O)(=O)N3CCCCCC3)ccc21)c1ccccc1` (configuration not stated), the “outcome” value is reported as “inactive”.
With `O=C(CSc1n[nH]c(-c2ccccc2Cl)n1)NCCc1ccccc1` the “activity change, negative = inhibition” value was inactive: 10.7%.
In the case of `COc1ccc(N2CCN(C(=O)c3cccn3-c3nnc(N4CCCC4)s3)CC2)cc1`, the “outcome” value is reported as “inactive”.
In the case of `CCc1nn(CCCC(=O)NCc2ccc(OC(C)C)cc2)c(=O)c2cc3occc3n12`, the “outcome” value is reported as “inactive”.
In the case of `O=C(CCS(=O)(=O)c1cc2c(cc1Cl)NC(=O)CO2)NCCc1ccccc1`, the “outcome” value is reported as “inactive”.
With `COc1ccc(C(=O)Nc2ccc(S(=O)(=O)Nc3cc(C)nc(C)n3)cc2)cc1` the “outcome” value was “inactive”.
For `CCCS(=O)(=O)N1CC(=O)N(c2cccc(F)c2)C(C)(C(=O)NC2CCCCCC2)C1` (configuration not stated), the “activity change, negative = inhibition” value was inactive: 4.5%.
In the case of `CCOC(=O)c1c(C)[nH]c(CCC(=O)Nc2ccccc2C(F)(F)F)c1C`, the “activity change, negative = inhibition” value is reported as inactive: -6.31%.
With `CCc1ccc(NC(=O)CSc2nnc3[nH]c(=O)cc(-c4ccccc4)n23)cc1` the “activity change, negative = inhibition” value was inactive: 2.66%.
With `CCN(C(=O)CCc1nc(-c2ccc(C)cc2)no1)c1cccc(C(F)(F)F)c1` the “activity change, negative = inhibition” value was inactive: -5.96%.
With `COc1ccc(Cn2ccc3nc(C)c(C(=O)N4CCN(c5cccc(OC)c5)CC4)cc3c2=O)cc1` the “activity change, negative = inhibition” value was inactive: 3.46%.
With `CCCCC1CCC(C(=O)N2CC(=O)Nc3ccc(C)cc3C2c2ccc(F)cc2)CC1` (configuration not stated) the “activity change, negative = inhibition” value was inactive: -15.7%.
With `COc1ccc(NC(=O)c2c(NC(=O)C(F)(F)F)sc3c2CCCCC3)cc1` the “activity change, negative = inhibition” value was inactive: 3.03%.
